Results from patent publication US8592367B2, “Nodule specific medicago peptides having antimicrobial activity and pharmaceutical compositions containing the same” (priority 2009, dated 2013).

Tested on: Sinorhizobium meliloti AK631
Test: PI staining of Sinorhizobium meliloti
Settings: 1, 2, 5, 10, 20 and 50 μg/ml, log phase bacteria, FIGS. 3A to 3E
Method: Propidum Iodide (PI) is able to intercalate into the DNA structure and emits fluorescence only in DNA bound form. PI is able to enter only into cells that lost the membrane integrity therefore it is commonly used for identifying dead cells by detecting fluorescence emission intensity. Intact membranes are impervious for PI, therefore PI is excluded from alive cells, and no fluorescence is observed.
PI staining was measured in a BMG Labtech Fluostar Optima fluorimeter (excitation: 520 nm, emission: 610 nm). Reactions were initiated by addition of NCR peptides to the bacteria. Kinetic measurements were performed, in most cases a plateau of fluorescence intensity was reached within minutes.
Peptides (NCRs) were added at 1, 2, 5, 10, 20 and 50 μg/ml concentrations to log phase bacteria.
Polymyxin B was added at 50 μg/ml.

Row | Substance | relative PI fluorescence at various concentrations | relative PI fluorescence at various concentrations (listed as NCR35)
1 | NCR035: cationic NCR peptide (SFLGTFISSCKRDKDCPKLYGANFRCRKGTCVPPI; Peptide derived from Medicago truncatula) | high activity from 2 μg/ml | significant PI fluorescence at 10 or 20 μg/ml
2 | NCR055: cationic NCR peptide (VNDCIRIHCKDDFDCIENRLQVGCRLQREKPRCVNLVCRCLRR; Peptide derived from Medicago truncatula) | significant PI fluorescence at 10 or 20 μg/ml | 
3 | NCR057: cationic NCR peptide (RPVSCKDHYDCRRKVKIVGCIFPQEKPMCINSMCTCIREIVP; Peptide derived from Medicago truncatula) | more active at higher concentrations (20 and 50 μg/ml) | 
4 | NCR247: cationic NCR peptide (RNGCIVDPRCPYQQCRRPLYCRRR; Peptide derived from Medicago truncatula) | significant PI fluorescence at 10 or 20 μg/ml | 
